According to publication PMC5460031:
Results are given in words; binding and its absence hold for the method and conditions named. For part of these data: Binding seen in cells or lysates may run through a third protein. Some entries that bind do so weakly or less than the wild type.

Amino acid sequences for entries named in this document (tags omitted). Residues count along the entry.
UniProt P46531, residues 19-2555: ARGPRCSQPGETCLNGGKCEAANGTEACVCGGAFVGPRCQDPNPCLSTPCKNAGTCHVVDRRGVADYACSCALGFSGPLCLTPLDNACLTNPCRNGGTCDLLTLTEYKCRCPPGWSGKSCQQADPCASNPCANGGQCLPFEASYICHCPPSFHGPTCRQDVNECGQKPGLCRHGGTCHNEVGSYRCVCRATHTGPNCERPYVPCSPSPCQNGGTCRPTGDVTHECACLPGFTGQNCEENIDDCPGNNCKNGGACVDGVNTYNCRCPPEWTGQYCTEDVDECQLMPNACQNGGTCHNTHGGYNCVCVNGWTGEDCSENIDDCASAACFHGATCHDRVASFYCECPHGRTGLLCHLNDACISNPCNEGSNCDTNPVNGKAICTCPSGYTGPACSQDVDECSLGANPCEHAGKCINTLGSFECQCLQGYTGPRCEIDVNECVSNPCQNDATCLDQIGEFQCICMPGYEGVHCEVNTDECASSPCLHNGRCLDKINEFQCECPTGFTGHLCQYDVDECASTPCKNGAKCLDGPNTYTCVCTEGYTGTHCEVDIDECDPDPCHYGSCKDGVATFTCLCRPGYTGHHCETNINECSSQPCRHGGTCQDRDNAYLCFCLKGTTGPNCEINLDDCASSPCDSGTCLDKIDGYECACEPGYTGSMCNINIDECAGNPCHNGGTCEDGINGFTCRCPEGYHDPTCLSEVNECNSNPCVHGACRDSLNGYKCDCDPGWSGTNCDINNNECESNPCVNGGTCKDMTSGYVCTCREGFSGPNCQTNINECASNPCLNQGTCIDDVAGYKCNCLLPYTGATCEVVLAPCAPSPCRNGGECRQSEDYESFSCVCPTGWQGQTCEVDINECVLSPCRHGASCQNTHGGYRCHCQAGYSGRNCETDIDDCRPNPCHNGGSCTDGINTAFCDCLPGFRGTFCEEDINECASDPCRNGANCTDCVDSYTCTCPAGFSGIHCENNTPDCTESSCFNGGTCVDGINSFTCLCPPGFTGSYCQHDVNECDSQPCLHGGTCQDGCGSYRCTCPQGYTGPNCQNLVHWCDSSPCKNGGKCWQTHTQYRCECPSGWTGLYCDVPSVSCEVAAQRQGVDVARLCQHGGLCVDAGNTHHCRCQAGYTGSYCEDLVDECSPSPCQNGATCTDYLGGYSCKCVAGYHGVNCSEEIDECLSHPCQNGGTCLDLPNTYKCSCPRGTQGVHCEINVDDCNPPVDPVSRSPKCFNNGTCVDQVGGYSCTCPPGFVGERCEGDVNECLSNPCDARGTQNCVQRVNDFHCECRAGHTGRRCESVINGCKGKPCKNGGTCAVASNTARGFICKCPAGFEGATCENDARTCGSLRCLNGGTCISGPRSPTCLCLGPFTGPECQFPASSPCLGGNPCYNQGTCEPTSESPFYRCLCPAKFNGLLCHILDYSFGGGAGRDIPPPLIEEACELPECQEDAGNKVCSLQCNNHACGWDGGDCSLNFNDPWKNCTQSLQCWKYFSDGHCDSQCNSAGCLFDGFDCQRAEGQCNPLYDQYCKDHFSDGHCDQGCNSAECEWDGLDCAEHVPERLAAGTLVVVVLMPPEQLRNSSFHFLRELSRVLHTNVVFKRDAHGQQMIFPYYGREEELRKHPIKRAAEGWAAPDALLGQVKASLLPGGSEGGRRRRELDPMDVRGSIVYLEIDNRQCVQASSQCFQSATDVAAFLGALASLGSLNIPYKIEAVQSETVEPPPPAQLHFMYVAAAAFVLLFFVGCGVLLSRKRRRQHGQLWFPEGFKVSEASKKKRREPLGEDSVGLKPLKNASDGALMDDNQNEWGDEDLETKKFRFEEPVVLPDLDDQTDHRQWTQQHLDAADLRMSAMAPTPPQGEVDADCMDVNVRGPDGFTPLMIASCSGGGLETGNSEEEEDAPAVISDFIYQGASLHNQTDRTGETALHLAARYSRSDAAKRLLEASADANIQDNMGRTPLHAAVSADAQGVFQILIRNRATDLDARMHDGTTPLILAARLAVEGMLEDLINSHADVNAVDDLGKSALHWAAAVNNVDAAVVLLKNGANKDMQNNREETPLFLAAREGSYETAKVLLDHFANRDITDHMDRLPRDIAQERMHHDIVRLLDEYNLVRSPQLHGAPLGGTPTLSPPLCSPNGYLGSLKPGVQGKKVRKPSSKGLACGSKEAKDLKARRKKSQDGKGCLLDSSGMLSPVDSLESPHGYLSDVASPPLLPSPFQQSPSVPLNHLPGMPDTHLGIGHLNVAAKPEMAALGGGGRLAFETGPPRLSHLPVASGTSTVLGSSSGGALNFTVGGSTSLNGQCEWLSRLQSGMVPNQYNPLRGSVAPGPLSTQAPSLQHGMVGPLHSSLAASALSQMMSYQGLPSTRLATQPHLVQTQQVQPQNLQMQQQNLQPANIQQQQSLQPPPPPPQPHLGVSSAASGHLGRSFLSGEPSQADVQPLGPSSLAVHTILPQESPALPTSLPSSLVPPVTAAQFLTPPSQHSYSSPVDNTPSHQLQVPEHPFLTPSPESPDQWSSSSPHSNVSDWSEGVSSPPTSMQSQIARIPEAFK
UniProt Q01705, residues 19-2531: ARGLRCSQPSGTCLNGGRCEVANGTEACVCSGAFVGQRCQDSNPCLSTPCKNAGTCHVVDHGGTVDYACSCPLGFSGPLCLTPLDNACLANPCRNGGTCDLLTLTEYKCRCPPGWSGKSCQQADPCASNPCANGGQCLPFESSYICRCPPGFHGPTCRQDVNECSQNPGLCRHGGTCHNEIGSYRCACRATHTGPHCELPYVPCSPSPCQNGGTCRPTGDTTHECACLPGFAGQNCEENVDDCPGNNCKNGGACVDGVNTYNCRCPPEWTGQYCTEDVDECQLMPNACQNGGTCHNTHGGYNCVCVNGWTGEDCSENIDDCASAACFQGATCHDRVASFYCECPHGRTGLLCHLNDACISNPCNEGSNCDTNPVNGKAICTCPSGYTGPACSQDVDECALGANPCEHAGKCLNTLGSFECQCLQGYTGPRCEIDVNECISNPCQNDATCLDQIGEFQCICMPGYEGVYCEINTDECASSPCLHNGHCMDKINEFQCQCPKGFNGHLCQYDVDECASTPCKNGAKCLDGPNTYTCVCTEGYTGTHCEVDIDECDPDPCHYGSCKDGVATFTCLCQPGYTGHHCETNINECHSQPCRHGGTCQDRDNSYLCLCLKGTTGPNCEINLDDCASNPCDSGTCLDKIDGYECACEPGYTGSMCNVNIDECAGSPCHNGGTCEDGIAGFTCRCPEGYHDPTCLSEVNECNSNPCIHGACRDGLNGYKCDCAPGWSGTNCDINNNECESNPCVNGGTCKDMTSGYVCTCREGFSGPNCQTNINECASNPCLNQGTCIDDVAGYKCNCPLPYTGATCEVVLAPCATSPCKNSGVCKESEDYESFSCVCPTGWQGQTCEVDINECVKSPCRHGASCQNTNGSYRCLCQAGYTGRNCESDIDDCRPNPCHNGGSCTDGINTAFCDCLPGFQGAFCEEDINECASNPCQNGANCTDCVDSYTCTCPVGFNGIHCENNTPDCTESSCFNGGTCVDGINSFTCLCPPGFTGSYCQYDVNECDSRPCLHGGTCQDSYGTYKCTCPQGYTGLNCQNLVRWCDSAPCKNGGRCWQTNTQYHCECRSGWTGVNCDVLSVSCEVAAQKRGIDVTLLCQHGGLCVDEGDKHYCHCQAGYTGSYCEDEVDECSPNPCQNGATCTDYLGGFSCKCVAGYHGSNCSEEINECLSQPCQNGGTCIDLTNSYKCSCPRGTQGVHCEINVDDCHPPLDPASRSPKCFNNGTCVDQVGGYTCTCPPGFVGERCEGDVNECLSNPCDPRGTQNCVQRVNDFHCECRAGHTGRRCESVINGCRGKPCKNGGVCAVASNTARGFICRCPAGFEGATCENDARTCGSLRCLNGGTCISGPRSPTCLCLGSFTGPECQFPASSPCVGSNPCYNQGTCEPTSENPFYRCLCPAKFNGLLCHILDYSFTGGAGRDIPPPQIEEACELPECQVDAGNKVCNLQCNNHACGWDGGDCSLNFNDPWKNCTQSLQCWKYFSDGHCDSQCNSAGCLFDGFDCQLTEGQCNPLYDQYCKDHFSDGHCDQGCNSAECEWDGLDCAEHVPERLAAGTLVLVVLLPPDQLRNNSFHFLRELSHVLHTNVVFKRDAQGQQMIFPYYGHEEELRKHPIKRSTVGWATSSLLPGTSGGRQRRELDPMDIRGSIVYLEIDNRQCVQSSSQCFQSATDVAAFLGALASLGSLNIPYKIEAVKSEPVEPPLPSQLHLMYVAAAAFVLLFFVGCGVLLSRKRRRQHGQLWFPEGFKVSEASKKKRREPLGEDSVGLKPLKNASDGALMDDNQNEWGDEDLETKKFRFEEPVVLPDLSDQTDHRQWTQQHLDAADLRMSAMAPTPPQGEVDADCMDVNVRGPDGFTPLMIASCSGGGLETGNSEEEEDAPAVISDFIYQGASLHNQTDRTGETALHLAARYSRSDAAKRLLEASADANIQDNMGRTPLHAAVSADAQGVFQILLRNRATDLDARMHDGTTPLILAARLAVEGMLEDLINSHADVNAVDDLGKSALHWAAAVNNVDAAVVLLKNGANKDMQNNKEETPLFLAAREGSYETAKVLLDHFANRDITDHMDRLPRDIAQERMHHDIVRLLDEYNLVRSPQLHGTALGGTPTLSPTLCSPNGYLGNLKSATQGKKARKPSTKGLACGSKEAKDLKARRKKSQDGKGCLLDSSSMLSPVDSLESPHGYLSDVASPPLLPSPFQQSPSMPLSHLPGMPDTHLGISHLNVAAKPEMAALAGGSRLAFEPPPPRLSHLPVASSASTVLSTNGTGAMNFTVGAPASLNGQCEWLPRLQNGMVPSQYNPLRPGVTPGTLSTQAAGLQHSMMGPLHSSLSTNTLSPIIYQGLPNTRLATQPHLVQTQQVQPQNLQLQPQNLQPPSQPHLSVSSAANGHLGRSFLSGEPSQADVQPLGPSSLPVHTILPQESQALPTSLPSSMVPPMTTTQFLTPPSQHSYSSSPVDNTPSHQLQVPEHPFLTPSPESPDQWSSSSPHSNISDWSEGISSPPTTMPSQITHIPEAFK

T1: Act1 (endogenous, mouse OPCs) (mouse (endogenous in OPCs)) (UniProt Q8N7N6)
T1 sequence: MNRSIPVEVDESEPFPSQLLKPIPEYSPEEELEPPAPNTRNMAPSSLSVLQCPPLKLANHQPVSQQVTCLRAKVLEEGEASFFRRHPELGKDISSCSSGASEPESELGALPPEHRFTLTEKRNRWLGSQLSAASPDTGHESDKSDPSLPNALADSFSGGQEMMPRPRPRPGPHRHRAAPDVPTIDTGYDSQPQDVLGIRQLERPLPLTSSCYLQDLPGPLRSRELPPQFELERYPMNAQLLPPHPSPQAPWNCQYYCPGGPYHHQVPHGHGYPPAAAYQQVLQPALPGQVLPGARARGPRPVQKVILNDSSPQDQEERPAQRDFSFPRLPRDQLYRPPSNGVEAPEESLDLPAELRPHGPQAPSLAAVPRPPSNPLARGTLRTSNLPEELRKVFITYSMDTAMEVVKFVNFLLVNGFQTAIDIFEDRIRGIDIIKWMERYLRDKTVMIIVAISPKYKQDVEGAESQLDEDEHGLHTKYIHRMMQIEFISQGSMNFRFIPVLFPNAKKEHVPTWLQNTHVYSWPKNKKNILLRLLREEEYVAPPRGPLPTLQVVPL

B1: IL-17RA (endogenous, mouse OPC-astrocyte co-culture) (receptor, UniProt Q60943 32-864)
chain: SPRLLDFPAPVCAQEGLSCRVKNSTCLDDSWIHPKNLTPSSPKNIYINLSVSSTQHGELVPVLHVEWTLQTDASILYLEGAELSVLQLNTNERLCVKFQFLSMLQHHRKRWRFSFSHFVVDPGQEYEVTVHHLPKPIPDGDPNHKSKIIFVPDCEDSKMKMTTSCVSSGSLWDPNITVETLDTQHLRVDFTLWNESTPYQVLLESFSDSENHSCFDVVKQIFAPRQEEFHQRANVTFTLSKFHWCCHHHVQVQPFFSSCLNDCLRHAVTVPCPVISNTTVPKPVADYIPLWVYGLITLIAILLVGSVIVLIICMTWRLSGADQEKHGDDSKINGILPVADLTPPPLRPRKVWIVYSADHPLYVEVVLKFAQFLITACGTEVALDLLEEQVISEVGVMTWVSRQKQEMVESNSKIIILCSRGTQAKWKAILGWAEPAVQLRCDHWKPAGDLFTAAMNMILPDFKRPACFGTYVVCYFSGICSERDVPDLFNITSRYPLMDRFEEVYFRIQDLEMFEPGRMHHVRELTGDNYLQSPSGRQLKEAVLRFQEWQTQCPDWFERENLCLADGQDLPSLDEEVFEDPLLPPGGGIVKQQPLVRELPSDGCLVVDVCVSEEESRMAKLDPQLWPQRELVAHTLQSMVLPAEQVPAAHVVEPLHLPDGSGAAAQLPMTEDSEACPLLGVQRNSILCLPVDSDDLPLCSTPMMSPDHLQGDAREQLESLMLSVLQQSLSGQPLESWPRPEVVLEGCTPSEEEQRQSVQSDQGYISRSSPQPPEWLTEEEELELGEPVESLSPEELRSLRKLQRQLFFWELEKNPGWNSLEPRRPTPEEQNPS

Tests used:
[1] = biological target: T1, Act1 (endogenous, mouse OPCs) (mouse (endogenous in OPCs)); assay: co-IP; wild-type mouse OPCs co-cultured with Act1 KO astrocytes, stimulated with IL-17 (50 ng ml^−1) for the indicated times; lysates immunoprecipitated with anti-Act1 antibody; immunoblot
[2] = biological target: FLAG-NOTCH1 (human) (UniProt P46531); assay: co-IP; same experiment as a6: synthetic IL-17RA decoy peptide (100 or 200 μM) added to transfected HEK293 cells as competitor; only the binder purified
[3] = biological target: NOTCH1 (endogenous, mouse OPCs) (mouse (endogenous in OPCs)) (UniProt Q01705); assay: flow cytometry on cells; wild-type and NOTCH1 KO OPCs incubated with FITC-labelled IL-17RA decoy peptide (200 μM), then stained with PE-labelled anti-NOTCH1 antibody; only the binder purified

| Binder | binding [1] | binding [2] | binding [3] |
| --- | --- | --- | --- |
| B1 | binds | – | – |
| VQVQPFFSSCLNDCLRHAVTVPCPVISNTTVPKPVADYIP (fluorescein isothiocyanate (FITC) tag at its C terminus) [IL-17RA decoy peptide] | – | binds | binds |
